Assay results reported in patent US4113858A, “Novel compounds, compositions and methods of their use” (St. Luke's Hospital, priority 1976, dated 1978).

Columns and labels:
[1] = tested on: guinea pigs, rabbits and rats; conditions: lesions characteristic of the disease
Guinea Pigs [2] = test: Suppression of disease (EAE), Table VI; assay type: in vivo
Procedure: In Table VI below, suppression type experiments are conducted on guinea pigs to show the effect of administering the disease producing native peptide (formula X). The animals are injected with the synthetic compounds IX of the invention herein at varying periods after the initial injection of the native peptide and using varying dosages.
Four groups of guinea pigs are employed. Group IV animals received neither the disease inducing native peptide (formula X) nor the synthetic compound (IX) of the invention and served as a second control group. Group III animals are treated with the native peptide (formula X) only at day zero by the injection of 25 micrograms emulsified in complete Freund's adjuvant and served as a first control group. Group I animals are injected with 25 micrograms of the disease inducing native peptide (formula X) emulsified in complete Freund's adjuvant at day zero. Also, group I animals received daily injections for 14 consecutive days of 250 micrograms each of formula I dissolved in saline administered intraveneously, the first injection being administered starting day zero. Group II animals receive the identical treatment of group I animals except group II animals receive the initial injection of formula 1 at day 7 and continued daily for 14 consecutive days, each injection containing 250 micrograms of formula (IX) in saline for a total of 3,500 micrograms.
Eighty percent of the first control group show evidence of disease within 16 days post sensitization and die by day 20. The second control group remains healthy throughout the experiment. Experiment groups I and II loose about 10% of body weight at day 14-16 and begin to gain weight thereafter.

Guinea Pigs [3] = assay type: in vivo
Text: (§1) prepared according to Example 2, supra.

Rabbits [4] = assay type: in vivo
Text: as §1

Rabbits [5] = assay type: in vivo; remark: listed apart in the source
Procedure: Group III animals except group IIIB rabbits are injected intraveneously with 1500 micrograms of formula (IX).

Guinea Pigs [6] = assay type: in vivo; remark: listed apart in the source
Procedure: At day zero group I animals except group 1B guinea pigs are injected subcutaneously with 250 micrograms of formula (IX) emulsified in incomplete Freund's adjuvant as carrier.

Guinea Pigs [7] = test: Specificity of delayed type skin hypersensitivity response (Table III); assay type: in vivo
Procedure: Guinea pigs are sensitized (10 animals/group) with 500 μg each of compound (V) (prepared according to Example 1, supra.), myelin basic protein (BP), the alpha -1 component of calf skin (α1 -- calf) and the alpha -1 component of guinea pig collagen (α1 -- g.p.), emulsified in complete Freund's adjuvant. At day 11 after sensitization, the animals were skin tested with various doses of the specific antigens dissolved in saline. Positive responses are indicated by erythema at the skin test site. A control group is administered saline.

Guinea Pigs [8] = test: Non-encephalitogenic properties of Compound V, disease index (Table II); assay type: in vivo; conditions: Day 30; 0.025 mg antigen in CFA, single administration
Text: A number of guinea pigs are divided into equal groups I, II, III, IV, V, VI and VII. Each of groups I, II, III and IV are given a single subcutaneous administration of the compound (V) (formula: H -- Phe -- Ser -- Trp -- Gln -- Lys )4 Gly -- OH) prepared according to Example 1. supra. The dose administered, in Complete Freund's adjuvant and the disease index (number of animals showing disease symptons/number tested) obtained after 30 and 120 days, respectfully, are given in Table II below. Groups, V, VI and VII serve as controls. Group V received a single administration of the myelin basic protein (BP), group VI received a single administration of peptide E (E), the encephalitogenic region derived from the encephalitogenic basic protein. Group VII received a single administration of Complete Freund's adjuvant alone.
The figures show the number of diseased guinea pigs per number tested. The disease index for experimental allergic encephalomyelitis (EAE) is reported in terms of clinical and histophathological criteria by day 30 following sensitization.

Guinea Pigs [9] = tested on: Guinea Pigs
[10] = 30 days, 500 μg single s.c. dose in complete Freund's adjuvant
[11] = 90 days, 500 μg single s.c. dose in complete Freund's adjuvant
[12] = in animals sensitized with compound V or BP
[13] = Group 5: challenge 100 μg BP in FCA, treated with FIA only
[14] = Group 7: challenge 150 μg BP in FCA, treated with FIA only
[15] = Group 8: challenge 150 μg BP in FCA, treated with saline only
[16] = Group 10: challenge 150 μg BP, treatment 1 mg BP, late stage
[17] = Group 11: challenge 150 μg BP in FCA, treated with FIA only, late stage

GGWGGGGQK [Formula (IX), H -- (Gly)2 -- Trp -- (Gly)4 -- Gln -- Lys -- OH]
Clinical Disease Score (Lewis Rats; 30 days, 100 μg single s.c. dose in complete Freund's adjuvant): 0/10 | Clinical Disease Score (Lewis Rats; 30 days, 250 μg single s.c. dose in complete Freund's adjuvant): 0/10 | Clinical Disease Score (Lewis Rats; 90 days, 100 μg single s.c. dose in complete Freund's adjuvant): 0/10 | Clinical Disease Score (Lewis Rats; 90 days, 250 μg single s.c. dose in complete Freund's adjuvant): 0/10 | Clinical Disease Score (Rats; Day 37, Group II: 150 μg Formula IX s.c. in saline daily day 0-14, challenge 50 μg B.P. day 7): 0/15 | Clinical Disease Score (Rats; Day 37, Group IIA: 150 μg Formula IX daily day 0-14, no challenge): 0/15 | Clinical Disease Score (Rats; Day 97, Group II: 150 μg Formula IX daily day 0-14, challenge 50 μg B.P. day 7): 0/15 | Clinical Disease Score (Rats; Day 97, Group IIA: 150 μg Formula IX daily day 0-14, no challenge): 0/15 | histological examination of brain and spinal cord sections [1]: absence of lesions characteristic of the disease | Clinical Disease Score (Guinea Pigs [2]; 16 Days, Group I: 25 μg formula X in CFA day 0, 250 μg formula IX i.v. in saline daily day 0-14): 0/15 | Clinical Disease Score (Guinea Pigs [2]; 16 Days, Group II: 25 μg formula X in CFA day 0, 250 μg formula IX daily day 7-21): 0/15 | Clinical Disease Score (Guinea Pigs [2]; 30 Days, Group I: formula X day 0, 250 μg formula IX daily day 0-14): 0/15 | Clinical Disease Score (Guinea Pigs [2]; 30 Days, Group II: formula X day 0, 250 μg formula IX daily day 7-21): 0/15 | Clinical Disease Score (Guinea Pigs [2]; 90 Days, Group I: formula X day 0, 250 μg formula IX daily day 0-14): 0/15 | Clinical Disease Score (Guinea Pigs [2]; 90 Days, Group II: formula X day 0, 250 μg formula IX daily day 7-21): 0/15 | loss of body weight (Guinea Pigs [2]; groups I and II, day 14-16, weight gain thereafter): about 10% | other clinical symptoms of the disease (Guinea Pigs [2]; groups I and II, period of three months): No other clinical symptoms of the disease are apparent | Clinical Disease Score (Guinea Pigs [3]; 30 days, 10 μg single s.c. dose in complete Freund's adjuvant, diseased/tested): 0/15 | Clinical Disease Score (Guinea Pigs [3]; [10]): 0/15 | Clinical Disease Score (Guinea Pigs [3]; 90 days, 10 μg single s.c. dose in complete Freund's adjuvant): 0/15 | Clinical Disease Score (Guinea Pigs [3]; [11]): 0/15 | Clinical Disease Score (Rabbits [4]; [10]): 0/10 | Clinical Disease Score (Rabbits [4]; 30 days, 1500 μg single s.c. dose in complete Freund's adjuvant): 0/10 | Clinical Disease Score (Rabbits [4]; [11]): 0/10 | Clinical Disease Score (Rabbits [4]; 90 days, 1500 μg single s.c. dose in complete Freund's adjuvant): 0/10 | Clinical Disease Score (Rabbits [5]; Day 37, Group III: 1500 μg Formula IX i.v. daily day 0-14, challenge 50 μg Formula XI day 7): 0/15 | Clinical Disease Score (Rabbits [5]; Day 37, Group IIIA: 1500 μg Formula IX daily day 0-14, no challenge): 0/15 | Clinical Disease Score (Rabbits [5]; Day 97, Group III: 1500 μg Formula IX daily day 0-14, challenge 50 μg Formula XI day 7): 0/15 | Clinical Disease Score (Rabbits [5]; Day 97, Group IIIA: 1500 μg Formula IX daily day 0-14, no challenge): 0/15 | Clinical Disease Score (Guinea Pigs [6]; Day 37, Group IA: 250 μg Formula IX daily day 0-14, no challenge): 0/15 | Clinical Disease Score (Guinea Pigs [6]; Day 97, Group I: 250 μg Formula IX daily day 0-14, challenge 25 μg Formula X day 7): 0/15 | Clinical Disease Score (Guinea Pigs [6]; Day 97, Group IA: 250 μg Formula IX daily day 0-14, no challenge): 0/15

TTHYGSLPQK [Formula (XI), H -- Thr -- Thr -- His -- Tyr -- Gly -- Ser -- Leu -- Pro -- Gln -- Lys -- OH, reference compound]
Clinical Disease Score (Rabbits [4]; 30 days, 50 μg (Group IV)): 12/15 | Clinical Disease Score (Rabbits [4]; 90 days, 50 μg (Group IV)): 13/15 | Clinical Disease Score (Rabbits [5]; Day 37, Group IIIB: 50 μg Formula XI day 7 only): 12/15 | Clinical Disease Score (Rabbits [5]; Day 97, Group IIIB: 50 μg Formula XI day 7 only): 13/15

FSWGAEGQK [Formula (X), H -- Phe -- Ser -- Trp -- Gly -- Ala -- Glu -- Gly -- Gln -- Lys -- OH, reference compound]
Clinical Disease Score (Guinea Pigs [2]; 16 Days, Group III: 25 μg formula X in CFA day 0 only): 12/15 | Clinical Disease Score (Guinea Pigs [2]; 30 Days, Group III: 25 μg formula X day 0 only): 12/15 | Clinical Disease Score (Guinea Pigs [2]; 90 Days, Group III: 25 μg formula X day 0 only): 12/15 | animals showing evidence of disease within 16 days post sensitization and dying by day 20 (Guinea Pigs [2]; first control group (Group III), 25 micrograms formula X only): Eighty | Clinical Disease Score (Guinea Pigs [3]; 30 days, 20 μg (Group IV)): 14/15 | Clinical Disease Score (Guinea Pigs [3]; 90 days, 20 μg (Group IV)): 15/15 | Clinical Disease Score (Guinea Pigs [6]; Day 37, Group IB: carrier only, 25 μg Formula X day 7): 13/15 | Clinical Disease Score (Guinea Pigs [6]; Day 97, Group IB: carrier only, 25 μg Formula X day 7): 13/15

α1 -calf: the alpha -1 component of calf skin [reference compound]
delayed skin response elicited (Guinea Pigs [7]; [12]): did not elicit skin hypersensitivity responses

B1: Basic Protein: native protein isolated from bovine myelin known to induce disease (EAE) (protein, UniProt P02687 1-169, looked up)
Myelin basic protein: AAQKRPSQRSKYLASASTMDHARHGFLPRHRDTGILDSLGRFFGSDRGAPKRGSGKDGHHAARTTHYGSLPQKAQGHRPQDENPVVHFFKNIVTPRTPPPSQGKGRGLSLSRFSWGAEGQKPGFGYGGRASDYKSAHKGLKGHDAQGTLSKIFKLGGRDSRSGSPMARR
Disease Index (Guinea Pigs [8]): 9/10 | Clinical Disease Score (Lewis Rats; 30 days, 50 μg (Group IV)): 8/10 | Clinical Disease Score (Lewis Rats; 90 days, 50 μg (Group IV)): 10/10 | Clinical Disease Score (Rats; Day 37, Group IIB: carrier only, 50 μg B.P. day 7): 13/15 | Clinical Disease Score (Rats; Day 97, Group IIB: carrier only, 50 μg B.P. day 7): 13/15 | Clinical EAE (Guinea Pigs [9]; [13]): 4/4 | Histological EAE (Guinea Pigs [9]; [13]): 4/4 | Clinical EAE (Guinea Pigs [9]; [14]): 5/5 | Histological EAE (Guinea Pigs [9]; [14]): 5/5 | Clinical EAE (Guinea Pigs [9]; [15]): 6/6 | Histological EAE (Guinea Pigs [9]; [15]): 6/6 | Clinical EAE (Guinea Pigs [9]; [16]): 4/4 | Histological EAE (Guinea Pigs [9]; [16]): 3/4 | Reversal clinical EAE (Guinea Pigs [9]; Group 10: challenge 150 μg BP, treatment 1 mg BP, late stage, listed as BP): 2/4 | Reversal clinical EAE (Guinea Pigs [9]; Group 10: challenge 150 μg BP, treatment 1 mg BP, late stage, listed as bovine BP): partially successful in reversing the disease | Clinical EAE (Guinea Pigs [9]; [17]): 7/7 | Histological EAE (Guinea Pigs [9]; [17]): 7/7 | delayed skin response elicited (Guinea Pigs [7]; [12]): positive delayed skin responses | delayed skin response elicited (Guinea Pigs [7]; in animals sensitized with the α1-calf or α1-g.p. component of skin collagen): negative skin responses

Read-outs that look alike come from different tables or passages of the source. Ends that are not written are not given here.
